Consider 3 substances from PMC2703648.

No constants are given. Whether binding was seen depends on the method and setting. For part of these data: In cells and extracts the contact can be indirect. Some results given as binding are weak or reduced against the parent protein; the word gives no strength. For part of these data: Sequences can lack the tags named with a protein.

Experiment [1] deals with T1, dynamin2/GTPase-GFP fusion protein (human) (UniProt P50570).
T1 sequence: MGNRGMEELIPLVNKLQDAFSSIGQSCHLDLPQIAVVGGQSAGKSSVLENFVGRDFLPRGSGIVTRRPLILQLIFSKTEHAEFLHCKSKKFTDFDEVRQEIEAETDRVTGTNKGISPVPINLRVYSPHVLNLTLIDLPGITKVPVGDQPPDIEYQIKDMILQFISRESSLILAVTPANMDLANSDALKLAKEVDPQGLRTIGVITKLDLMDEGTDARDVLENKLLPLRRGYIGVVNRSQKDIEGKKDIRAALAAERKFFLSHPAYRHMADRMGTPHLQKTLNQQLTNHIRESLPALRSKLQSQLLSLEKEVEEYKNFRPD
Kind of experiment: co-IP; extracts of pEAK Rapid cells co-expressing dynamin2/GTPase-GFP with Kalirin7 or Kalirin12, immunoprecipitated with polyclonal GFP antibody or control immunoglobulin, blotted with Kalirin-spectrin antibody.

In experiment [2] the target is T2, dynamin2 (rat, endogenous) (rat (endogenous in rat cortex)) (UniProt P39052).
T2 sequence: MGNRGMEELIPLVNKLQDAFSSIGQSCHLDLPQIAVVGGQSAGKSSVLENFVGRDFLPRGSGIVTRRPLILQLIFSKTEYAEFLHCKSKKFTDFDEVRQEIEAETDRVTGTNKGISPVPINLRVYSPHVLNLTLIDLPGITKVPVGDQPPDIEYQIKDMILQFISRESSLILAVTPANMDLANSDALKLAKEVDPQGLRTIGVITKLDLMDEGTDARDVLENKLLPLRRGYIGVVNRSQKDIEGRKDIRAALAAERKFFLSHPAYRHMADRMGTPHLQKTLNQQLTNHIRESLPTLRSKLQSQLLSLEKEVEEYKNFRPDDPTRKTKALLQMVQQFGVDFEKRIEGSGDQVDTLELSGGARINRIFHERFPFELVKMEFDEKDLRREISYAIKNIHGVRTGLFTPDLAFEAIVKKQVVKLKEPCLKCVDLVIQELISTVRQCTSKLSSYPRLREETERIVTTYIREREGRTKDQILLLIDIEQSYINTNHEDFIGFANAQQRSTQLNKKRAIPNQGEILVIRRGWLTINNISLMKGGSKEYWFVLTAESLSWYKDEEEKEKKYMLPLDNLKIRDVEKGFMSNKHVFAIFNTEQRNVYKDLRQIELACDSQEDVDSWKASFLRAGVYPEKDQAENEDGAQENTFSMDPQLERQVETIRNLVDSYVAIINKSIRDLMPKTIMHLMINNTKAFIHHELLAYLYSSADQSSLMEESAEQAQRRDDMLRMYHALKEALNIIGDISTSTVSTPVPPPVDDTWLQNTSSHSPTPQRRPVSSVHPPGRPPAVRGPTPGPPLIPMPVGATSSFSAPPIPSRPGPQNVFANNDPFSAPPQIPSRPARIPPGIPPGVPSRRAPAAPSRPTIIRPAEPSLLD
Put plainly: co-IP; rat embryonic cortex cytosol immunoprecipitated with Kalirin-spectrin antibody (blots: pan-dynamin, dynamin1, dynamin2) or with dynamin antibody (blot: Kalirin12).

The target of experiment [3] is T3, dynamin purified from adult rat brain (rat (endogenous in rat brain)) (UniProt P21575).
T3 sequence: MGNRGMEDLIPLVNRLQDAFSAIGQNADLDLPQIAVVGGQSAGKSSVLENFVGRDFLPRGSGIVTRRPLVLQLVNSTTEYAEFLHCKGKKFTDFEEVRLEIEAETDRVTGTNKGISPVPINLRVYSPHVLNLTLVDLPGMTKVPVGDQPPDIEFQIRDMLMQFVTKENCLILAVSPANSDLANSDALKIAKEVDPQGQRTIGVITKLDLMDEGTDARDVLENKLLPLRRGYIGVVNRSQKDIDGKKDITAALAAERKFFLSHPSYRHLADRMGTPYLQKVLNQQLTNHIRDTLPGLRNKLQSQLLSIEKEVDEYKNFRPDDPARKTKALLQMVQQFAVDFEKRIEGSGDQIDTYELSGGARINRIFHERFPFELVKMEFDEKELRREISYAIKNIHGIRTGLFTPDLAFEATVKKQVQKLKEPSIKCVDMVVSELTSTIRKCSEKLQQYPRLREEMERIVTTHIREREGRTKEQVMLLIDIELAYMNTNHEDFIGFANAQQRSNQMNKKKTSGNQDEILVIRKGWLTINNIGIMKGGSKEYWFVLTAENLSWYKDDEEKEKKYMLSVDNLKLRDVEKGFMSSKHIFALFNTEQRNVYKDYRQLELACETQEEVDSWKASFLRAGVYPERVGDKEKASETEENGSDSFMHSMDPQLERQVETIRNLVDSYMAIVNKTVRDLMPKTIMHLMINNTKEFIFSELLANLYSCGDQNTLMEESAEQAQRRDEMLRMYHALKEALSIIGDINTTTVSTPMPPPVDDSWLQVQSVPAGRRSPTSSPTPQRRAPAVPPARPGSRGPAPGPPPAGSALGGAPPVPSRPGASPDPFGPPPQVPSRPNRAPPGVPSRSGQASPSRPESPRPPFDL
Kind of experiment: co-sedimentation; dynamin self-assembly assay: purified dynamin (2.5 μg), pre-incubated or not on ice 1 h with purified GST or GST-IgFn (5 μg), 10 min at room temperature with liposomes of 10% PI(4,5)P2; 60,000 x g, 15 min; Coomassie staining of supernatant and pellet; both purified.

Turning to “full-length myc-tagged Kalirin12 (from UniProt P97924-4 1-2968)”, the binding result in experiment [1] is “binds”. On to “Kalirin12 (endogenous) (from UniProt P97924-4 1-2968)”, for which the binding result in experiment [2] is on record as “binds”. “GST-IgFn (IgFn region of rat Kalirin12 fused to GST) (from UniProt P97924-4 2456-2625) (domain or fragment)”: the binding result in experiment [3] was “binds”.
